Assay results reported in the supplement of paper PMC10338343.
± gives the standard deviation. This is a selection; strong and weak results do not stand in their true shares.

Test system: MIWI (PIWIL1) piRISC loaded with L1MC piRNA (30 nt)
Experiment: pre-steady-state target cleavage rate (min^-1); MIWI and MILI are mouse PIWI proteins and EfPiwi is from a freshwater sponge; tags in brackets are library labels; higher = faster piRNA-guided slicing of the target
Details: guide: L1MC piRNA 5'p-UAACUAAAUACUAUGCAAGCUGUAGGUCCU
Outline: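 Reactions were run for 0–8 or 0–960 min at 33 °C in HEPES–potassium acetate buffer, combining 1 nM active affinity-purified piRISC with one synthetic guide, […] transcribed, DNA-blocked target RNA library and, in some cases, 500 nM GTSF1 partner protein. Sequencing of uncleaved targets followed, with normalisation to depth and to weakly complementary targets. Three trials were pooled, k3 was capped at 0.0001 min^-1, and the pre-steady-state cleavage rate was taken from a burst-and-steady-state fit.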

[1] = auxiliary factor: 500 nM mouse GTSF1
[2] = auxiliary factor: none (no GTSF1)
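Note: 1 nM active piRISC with 0.1 nM target library at 33 °C single turnover.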

Sequence	pre-steady-state target cleavage rate [1]	pre-steady-state target cleavage rate [2]
UCCUGGAUGUCCUUGCAUAGUAUUUAGUUC [g2:g19:cont:t1C]	0.093 ± 0.011	0.0107 ± 0.003
UCCUCCUACAGCUUGCAUAGUAUUCAGUUA	0.652 ± 0.048	0.0195 ± 0.0043
UCCUGGAUCUGCAUGCAUAGUAUUUAGUUA	0.204 ± 0.024	0.00439 ± 0.002
UCGACCUAGAGCUUGCAUAGUAUUUUGUUA	0.884 ± 0.085	0.0292 ± 0.0057
UCCACCAACAGCUUGCAUAGUAUUUAGAAA	0.378 ± 0.045	0.00708 ± 0.0027
UCCUGGAUGAGCUUGCUAUGUAUUUAGUUA	0.00494 ± 0.0027	0.00308 ± 0.0029
UCGACCUACAGCUUGCAUUGUAUUAAGUUA	0.508 ± 0.029	0.01 ± 0.0031
UCCUGCUACAGCUUGCAUAGAAUAUAGUUA	0.218 ± 0.018	0.00935 ± 0.0033
UCGACCUACAGCUUGCAUUCUAUUUAGUUA	0.356 ± 0.021	0.00761 ± 0.003
UCCACCUACAGCUAGCAUAGUAUUUAGUUA	0.973 ± 0.038	0.0169 ± 0.0041
UCCUGGAUGUCCUGCAUAGUAUUUAGUUA	0.0445 ± 0.011	0.0046 ± 0.0019
UCGACCUACAGCUUGCAUAGUAUAUUGUUA	0.499 ± 0.028	0.0241 ± 0.0063
UCCUGGUACCAGCUUGCAUAGUAUUUAGUUA	0.566 ± 0.079	0.0203 ± 0.0046
UCCUGGAUGAGCUUUCAUAGUAUUUAGUUA	0.312 ± 0.029	0.00672 ± 0.002
UCGACCUACACCUUGCAUAGUAUUUAGUUA	1.15 ± 0.046	0.0525 ± 0.008
UCGACCUUCAGCUUGCAUAGUAUUUAGUAA	1.05 ± 0.065	0.043 ± 0.011
UCCAGCUACAGCUUGCAUUGUAUUUAGUUA	0.899 ± 0.042	0.0296 ± 0.0053
AGGACCAACAGCUUGCAUAGUUUUUAGUUA	0.46 ± 0.023	0.0565 ± 0.011
UCCACCUUCAGCAUGCAUAGUAUUUAGUUA	0.858 ± 0.037	0.0222 ± 0.0045
UCCUGGUGACAGCUUGCAUAGUAUUUAGUUA	1.28 ± 0.055	0.13 ± 0.027
UCCUGGAUGUCCUUGCAUAGUAUUUAGGUUA	0.0387 ± 0.0082	0.00647 ± 0.0028
UCCUGGAACAGCUUGCAUAUAUUUAGUUA	0.0784 ± 0.011	0.0034 ± 0.0028
UCCUGGAACAGCUUGCAUAGUAUUUAGAAA	0.268 ± 0.035	0.0129 ± 0.004
UCCUGGUACAGCUAGCAUAGUAUUUACUUA	0.186 ± 0.041	0.0109 ± 0.0038
UCCUGGAUCAGCUUGCAUAGUAUUUAUGUUA	0.355 ± 0.025	0.0152 ± 0.0034
UCCUGGAACUGCUUGCAUAGUAUUUAGAUA	0.21 ± 0.028	0.012 ± 0.0039
UCCUGGAUCUCGUUGCAUAGUAUUUAGUAA	0.0309 ± 0.0067	0.00329 ± 0.0021

Sequence	pre-steady-state target cleavage rate [1]	pre-steady-state target cleavage rate [2]
UCCUGGAUCUGCUUGCAUAGUAUUUUGUUA	0.29 ± 0.024	0.0178 ± 0.0041
UCCUGGAACAGCUUGCAAUGUAUUUAGUUA	0.265 ± 0.02	0.00723 ± 0.0039
UCCUGGAACAGCUUGCUUAGUAUUAAGUUA	0.275 ± 0.03	0.0112 ± 0.0042
AUGACCUACAGCUUGCAUAGUAUUUAGUUA	1.06 ± 0.03	0.0859 ± 0.013
UCCACCUACAGCUUGCAUAGUAUAAUGUUA	0.307 ± 0.031	0.0117 ± 0.0029
UCCUGGAUGUGCUUGCAUAGUUUUUAGAUA	0.00724 ± 0.0061	0.00466 ± 0.0025
UCCUGGAACAGCAUGCAUAGUAUUAAGUUA	0.642 ± 0.052	0.0124 ± 0.0043
UCCUGGAUGAUCUUGCAUAGUAUUUAGUUA	0.509 ± 0.038	0.0215 ± 0.0057
UGGACCUACAGCUUGCAUAGUAUUAUCUAA	0.125 ± 0.021	0.00266 ± 0.0026
UCCUGGAUCUGCUUGCAUAGAAUUUAGUUA	0.0558 ± 0.0098	0.0133 ± 0.0047
UCCUGGAUGUGGUUGCAUAGUAUUUUGUUA	0.0123 ± 0.0062	0.00513 ± 0.0033
AGGACUUACAGCUUGCAUAGUAUUUAGUUA	1.39 ± 0.064	0.0831 ± 0.012
UCCUGGUACAGGUUGCAUAGUAUUUAGUAA	0.658 ± 0.076	0.0101 ± 0.0027
UCCUGGAACAGGUUGCAAAGUAUUUAGUUA	0.969 ± 0.055	0.0125 ± 0.003
UCCUGGAUCAGCUAGCAAAGUAUUUAGUUA	0.509 ± 0.041	0.00595 ± 0.0026
UGGACCUACAGCUUGCAUUGUAUUUAGAAA	0.147 ± 0.024	0.00674 ± 0.0022
UCCUGCUACACCAUGCAUAGUAUUUAGUUA	0.783 ± 0.035	0.00793 ± 0.002
UCGUCCUACAGGUUGCAUAGUAUUUAGUUA	1.06 ± 0.044	0.0288 ± 0.005
UCCUCCUACAGCUUGCAUAGUAUUUUGAUA	0.295 ± 0.033	0.00857 ± 0.0036
UCCACCUACAGCUUGCAUAGAAUUUACUUA	0.276 ± 0.042	0.0144 ± 0.0047
UCCUGGUACAGCUUGCAUAGUGUUUAGUUA	0.563 ± 0.067	0.0451 ± 0.0081
UCCUGGAUCAGCUUGCAUAGUAUUAAGUUA	0.758 ± 0.038	0.0192 ± 0.0072
UCCUCCUACAGCUUGGAUAGUAUAUAGUUA	0.509 ± 0.04	0.0165 ± 0.0038
UCGACCUAGUGCUUGCAUAGUAUUUAGUUA	0.85 ± 0.028	0.0599 ± 0.012
UGGACCUACAGCUUCCAUUGUAUUUAGUUA	0.113 ± 0.009	0.0026 ± 0.0019
UCCUGGAUGAGCUUGCAUAGUAUUUAGAAA	0.299 ± 0.055	0.00764 ± 0.0029
UCCACCUACAGCUUGCAAGUAUUUAGUUA	0.369 ± 0.031	0.00504 ± 0.0024
